Assay results reported in PubChem BioAssay AID212 (DTP/NCI, 2004).
Results filed as inconclusive are left out. Certain results were filed several times, with different values. Only these are listed. There may be further records. Results that share an entry repeat one measurement (runs, samples, wells, individuals or studies). *1 amine or outer side, *2 acyl side, *3 side chain or, on linkers, in order; H or OH if unused. Where a SMILES comes first, the peptide text is derived from it. [ ]: non-standard residue; d: D form. The star is where a group is joined. X2 = CCC(=O)CC1CC(C)CC(C(=O)[*:2])N1[*:1]; X1 = CCCCCCCCC(C)C(=O)*; Aib = CC(C)(N)C(=O)O; X3 = CC(CN(C)CCO)N*

Tested on: BDF1 mice, colon carcinoma 38 sc, T/C %
Test: NCI In Vivo Anticancer Drug Screen. Data for tumor model Colon Carcinoma 38 (subcutaneous) in B6D2F1 (BDF1) mice
Conditions: endpoint: median tumor weight (est.), higher = larger tumour
Procedure, shortened: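 T/C readout: treated group (T) measurement over vehicle control group (C) measurement. Endpoint is survival or tumor size in mice bearing a transplanted tumor.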

[1] = dose: 8.0 mg/kg/injection, schedule: Q07DX002 (ip), vehicle: saline with Tween-80
[2] = dose: 16.0 mg/kg/injection, schedule: Q07DX002 (ip), vehicle: saline with Tween-80
[3] = dose: 25.0 mg/kg/injection, schedule: Q07DX002 (ip), vehicle: saline with Tween-80
[4] = dose: 100.0 mg/kg/injection, schedule: Q07DX002 (ip), vehicle: saline with Tween-80
[5] = dose: 12.5 mg/kg/injection, schedule: Q07DX002 (ip), vehicle: saline
[6] = dose: 200.0 mg/kg/injection, schedule: Q07DX002 (ip), vehicle: saline with Tween-80
[7] = dose: 6.25 mg/kg/injection, schedule: Q07DX002 (ip), vehicle: saline with Tween-80
[8] = dose: 50.0 mg/kg/injection, schedule: Q07DX002 (ip), vehicle: saline with Tween-80
[9] = dose: 100.0 mg/kg/injection, schedule: Q07DX002 (ip), vehicle: saline
[10] = dose: 50.0 mg/kg/injection, schedule: Q07DX002 (ip), vehicle: saline
[11] = dose: 200.0 mg/kg/injection, schedule: Q07DX002 (ip), vehicle: saline

CC(=O)OCC1C(=O)OCC1C(=O)N1Cc2cc3ccccc3nc2C1 (stereo unspecified)
T/C [1]: 30 % of control and 168 % of control
T/C [2]: 77 % of control and 122 % of control
T/C (dose: 32.0 mg/kg/injection, schedule: Q07DX002 (ip), vehicle: saline with Tween-80): 64 % of control and 178 % of control

CCCCCCCCCCCCCCCCCC(=O)OCC(=O)OCC(=O)[C@]1(O)Cc2c(O)c3c(c(O)c2[C@@H](OC2CC(N)C(O)C(C)O2)C1)C(=O)c1c(OC)cccc1C3=O (stereo partly specified)
T/C (dose: 13.5 mg/kg/injection, schedule: Q07DX002 (ip), vehicle: saline with Tween-80): 43 % of control, 69 % of control, 78 % of control

Cc1oc2c(C)c3oc(=O)cc(C)c3cc2c1CCl
T/C [3]: 82 % of control and 112 % of control
T/C [4]: 60 % of control and 109 % of control

OC1CCCC2CCC[N-]C12.OC1CCCC2CCC[N-]C12.[Mn+2] (stereo unspecified)
T/C (dose: 25.0 mg/kg/injection, schedule: Q07DX002 (ip), vehicle: Klucel (hydroxypropylcellulose) (HPC)): 36 % of control and 123 % of control

NC1CCCCC1N.O=C1C=CC(=C(c2ccc(O)cc2)c2ccccc2S(=O)(=O)[O-])C=C1.O=[N+]([O-])[O-].[Pt+4]
T/C (dose: 3.12 mg/kg/injection, schedule: Q07DX002 (ip), vehicle: saline): 5 % of control, 68 % of control, 69 % of control
T/C (dose: 6.25 mg/kg/injection, schedule: Q07DX002 (ip), vehicle: saline): 8 % of control, 13 % of control, 54 % of control
T/C [5]: 2 % of control, 17 % of control, 43 % of control

COc1cc(C(C)(C)C)cc(OC)c1C(O)(c1c(OC)cc(C(C)(C)C)cc1OC)c1c(OC)cc(C(C)(C)C)cc1OC
T/C [3]: 66 % of control and 103 % of control
T/C [4]: 54 % of control and 84 % of control

NC(Cc1ccc(N(CCCl)Cc2ccccc2)cc1)C(=O)O (stereo unspecified)
T/C (dose: 100.0 mg/kg/injection, schedule: Q07DX002 (ip), vehicle: distilled water + Tween-80): 64 % of control and 97 % of control

CC1(C)OC2C(COC(=O)c3ccc([N+](=O)[O-])cc3)OC(NC(=O)N(CCCl)N=O)C2O1 (stereo unspecified)
T/C [6]: 31 % of control and 89 % of control

O=CC=O
T/C (dose: 12.5 mg/kg/injection, schedule: Q07DX002 (ip), vehicle: saline with Tween-80): 52 % of control and 151 % of control
T/C [3]: 56 % of control and 89 % of control
T/C [6]: 64 % of control and 108 % of control

CC(C)CC(NC(=O)CF)C(=O)O (stereo unspecified)
T/C (dose: 2.5 mg/kg/injection, schedule: Q07DX002 (ip), vehicle: saline): 75 % of control and 108 % of control

O=NN(CCCl)C(=O)NCCCl
T/C (dose: 2.0 mg/kg/injection, schedule: Q07DX002 (ip), vehicle: saline with Tween-80): 56 % of control and 83 % of control
T/C (dose: 2.0 mg/kg/injection, schedule: Q07DX003 (ip), vehicle: saline with Tween-80): 73 % of control and 119 % of control
T/C [1]: 54 % of control and 80 % of control
T/C [2]: 24 % of control and 73 % of control
T/C (dose: 16.0 mg/kg/injection, schedule: Q07DX003 (ip), vehicle: saline with Tween-80): 56 % of control and 83 % of control

Cc1nn(CCO)c(C)c1N=[N+]([O-])c1c(C)nn(CCO)c1C
T/C (dose: 100.0 mg/kg/injection, schedule: Q07DX002 (ip), vehicle: Klucel (hydroxypropylcellulose) (HPC)): 19 % of control and 84 % of control

CCCCCCCC(=O)N/N=C(\CO)[C@]1(O)Cc2c(O)c3c(c(O)c2[C@@H](OC2CC(N)C(O)C(C)O2)C1)C(=O)c1c(OC)cccc1C3=O (stereo partly specified)
T/C (dose: 13.5 mg/kg/injection, schedule: Q07DX002 (ip), vehicle: distilled water + Tween-80): 45 % of control and 101 % of control
T/C (dose: 27.0 mg/kg/injection, schedule: Q07DX002 (ip), vehicle: distilled water + Tween-80): 21 % of control and 73 % of control

O=c1nc(Oc2ccccc2)nc2ncccn12
T/C [7]: 94 % of control and 121 % of control
T/C [8]: 83 % of control and 120 % of control

C1=CCOCOC1
T/C [8]: 68 % of control and 119 % of control

N=C(N)Sc1ccccn1
T/C (dose: 12.5 mg/kg/injection, schedule: Q07DX003 (ip), vehicle: saline): 45 % of control and 109 % of control
T/C (dose: 25.0 mg/kg/injection, schedule: Q07DX003 (ip), vehicle: saline): 86 % of control and 120 % of control

CCc1nc(N)nc(N)c1-c1ccc(Cl)c([N+](=O)[O-])c1
T/C [3]: 73 % of control and 105 % of control

COC(=O)[C@@]12OC[C@]34[C@H]([C@@H](O)[C@@H]1O)[C@@]1(C)CC(=O)C(O)=C(C)[C@@H]1C[C@H]3OC(=O)[C@H](OC(=O)/C=C(\C)C(C)C)[C@@H]24
T/C (dose: 1.0 mg/kg/injection, schedule: Q07DX003 (ip), vehicle: other): 54 % of control and 86 % of control
T/C (dose: 2.0 mg/kg/injection, schedule: Q07DX003 (ip), vehicle: other): 23 % of control and 56 % of control

CCCCCC#CC1OC12CCCCC2 (stereo unspecified)
T/C [5]: 38 % of control and 85 % of control
T/C [9]: 28 % of control and 85 % of control

CC(CN1CC(=O)NC(=O)C1)N1CC(=O)NC(=O)C1 (stereo unspecified)
T/C (dose: 12.5 mg/kg/injection, schedule: Q07DX003 (ip), vehicle: Klucel (hydroxypropylcellulose) (HPC)): 60 % of control and 112 % of control
T/C (dose: 100.0 mg/kg/injection, schedule: Q07DX003 (ip), vehicle: Klucel (hydroxypropylcellulose) (HPC)): 47 % of control and 78 % of control

CCC(c1ccc(OC(=O)Cc2ccc(N(CCCl)CCCl)cc2)cc1)C(CC)c1ccc(OC(=O)Cc2ccc(N(CCCl)CCCl)cc2)cc1 (stereo unspecified)
T/C (dose: 150.0 mg/kg/injection, schedule: Q07DX002 (ip), vehicle: saline with Tween-80): 60 % of control, 114 % of control, 187 % of control

C1CC[N-]CC1.[Cl][Pt+2][Cl].[NH-]C1CC1
T/C (dose: 12.5 mg/kg/injection, schedule: Q07DX002 (ip), vehicle: water): 90 % of control and 121 % of control
T/C (dose: 50.0 mg/kg/injection, schedule: Q07DX002 (ip), vehicle: water): 70 % of control and 188 % of control

OCC12COCN1COC2
T/C [10]: 71 % of control and 109 % of control
T/C [9]: 56 % of control and 92 % of control
T/C [11]: 47 % of control and 97 % of control

CCOC(=O)C(C)(C)Oc1ccc(Cl)cc1
T/C [3]: 94 % of control and 124 % of control

C[C@]12CCC(=O)C(O)=C1CC[C@@H]1[C@@H]2CC[C@]2(C)C(=O)CC[C@@H]12
T/C (dose: 400.0 mg/kg/injection, schedule: Q07DX002 (ip), vehicle: Klucel (hydroxypropylcellulose) (HPC)): 83 % of control and 110 % of control
T/C (dose: 800.0 mg/kg/injection, schedule: Q07DX002 (ip), vehicle: Klucel (hydroxypropylcellulose) (HPC)): 88 % of control and 156 % of control

Nc1nc(N)c2c(Cl)c(CNc3ccc(Cl)c(Cl)c3)ccc2n1
T/C [7]: 69 % of control, 73 % of control, 115 % of control
T/C [3]: 45 % of control, 76 % of control, 77 % of control
T/C [8]: 24 % of control, 65 % of control, 80 % of control

C=C1C(=O)C23[C@H](O)C1CC[C@H]2[C@]12COC3(O)[C@@H](O)[C@@H]1C(C)(C)CC[C@@H]2O
T/C [3]: 62 % of control and 103 % of control

CCCCCCCCC(C)C(=O)N1CCCC1C(=O)N1C(CC(=O)CC)CC(C)CC1C(=O)NC(C)C(=O)NC(C)(C)C(=O)NC(C)(C)C(=O)NC(C(=O)NC(C)C(=O)NC(C)(C)C(=O)NC(C)(C)C(=O)NC(C)CN(C)CCO)C(C)CC (stereo unspecified) (X1-P[X2]A[Aib][Aib]IA[Aib][Aib]-X3; configuration not given here)
T/C (dose: 0.62 mg/kg/injection, schedule: Q07DX002 (ip), vehicle: Klucel (hydroxypropylcellulose) (HPC)): 76 % of control and 117 % of control

CC(C#N)(C#N)N=Nc1ccc(Cl)cc1Cl
T/C (dose: 400.0 mg/kg/injection, schedule: Q07DX002 (ip), vehicle: saline with Tween-80): 68 % of control and 95 % of control

BrC1c2cccc3cccc(c23)C1Br (stereo unspecified)
T/C [8]: 71 % of control and 100 % of control

N=c1ccn2c(n1)OC1C(O)C(CO)OC12 (stereo unspecified)
T/C [9]: 82 % of control, 94 % of control, 109 % of control
T/C [11]: 73 % of control, 86 % of control, 102 % of control
T/C (dose: 400.0 mg/kg/injection, schedule: Q07DX002 (ip), vehicle: saline): 60 % of control, 78 % of control, 87 % of control
T/C (dose: 800.0 mg/kg/injection, schedule: Q07DX002 (ip), vehicle: saline): 52 % of control, 84 % of control, 87 % of control

C/C=C/C=C1/OC(C)=C(C(C)=O)C1=O
T/C [8]: 48 % of control and 84 % of control
T/C [4]: 43 % of control, 93 % of control, 116 % of control

CNC(=O)ON(C(C)=O)C(=O)NC
T/C [10]: 78 % of control and 120 % of control
